Test results taken from ChEMBL document CHEMBL1201862, “PubChem BioAssay data set” (2004).
Values joined by “and” are separate entries in the source; they are usually repeats but may differ in a detail not shown here. Equal values may be shown once.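 Protocol summary: plate cells (96-well), add compound at 5 concentrations, incubate 48 h, interpolate endpoints linearly. GI50: concentration for 50% inhibition of growth.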 Active and inactive are the calls of the source. Cut-off read from the data, not from the text of the source: active = GI50 up to about 1.1 µM and inactive = higher.

Tested on: NCI-H322M
Test: NCI anticancer screen, dose series, 48 h

**Q.** With `O=C(O)c1ccc(NC(c2ccccc2)c2ccc3cccnc3c2O)cc1` (centres undefined) as the compound, how does the GI50 read?
**A.** inactive: 6.22 µM

**Q.** How did the GI50 turn out when `CC(=O)O[C@H]1C(=O)[C@@]2(C)[C@H]([C@H](OC(=O)c3ccccc3)[C@]3(O)C[C@H](OC(=O)[C@H](O)[C@@H](NC(=O)CC(C)C)c4ccccc4)C(C)=C1C3(C)C)[C@]1(OC(C)=O)CO[C@@H]1C[C@@H]2O` was run?
**A.** active: 0.0304 µM

**Q.** `Cc1cc(C)cc(NC(N)=S)c1` was tested. Which GI50 did it give?
**A.** inactive: > 100 µM

**Q.** With `C/C(=N/NC(=O)c1ccccc1S(N)(=O)=O)C(CN1CCCCC1)C(C1=C(O)C2C=CC=CC2OC1=O)c1ccccc1` (centres undefined) as the compound, how does the GI50 read?
**A.** inactive: > 100 µM

**Q.** Which GI50 does the source give for `CCOC(=O)C1=C(C)N(C2OC(COC(=O)c3ccccc3)C(OC(=O)c3ccccc3)C2OC(=O)c2ccccc2)C(=S)NC1c1ccccc1` (centres undefined) here?
**A.** inactive: > 100 µM

**Q.** For `COc1cc(CC2CC(c3ccc4c(c3)OCO4)OC2=O)cc(OC)c1OC` (centres undefined), which GI50 is on record?
**A.** inactive: > 100 µM

**Q.** With `CCOC(=O)c1cc(/C=C/C(C)=C/C(=O)OC)n(C)c1C` as the compound, how does the GI50 read?
**A.** inactive: > 100 µM

**Q.** `O=c1cc(O)c2ccccc2o1` [4-HYDROXYCOUMARINS] was tested. Which GI50 did it give?
**A.** inactive: > 100 µM

**Q.** Which GI50 does the source give for `CC1CCC2C(C(=O)O[C@H]3C4CCO[C@@H](OC5OC(CO)C(O)C(O)C5O)C4[C@@]4(CO)O[C@@H]34)=CO[C@@H](OC3OC(CO)C(O)C(O)C3O)C12` (some centres undefined) here?
**A.** inactive: > 10 µM

**Q.** Which GI50 does the source give for `CCOC(=O)NC1C2CC(=O)C(O2)C1OCc1ccccc1` (centres undefined) here?
**A.** inactive: > 100 µM

**Q.** For `CN(C)c1ccc(/C=C/c2sc3ccccc3[n+]2C)cc1`, which GI50 is on record?
**A.** inactive: 11 µM and inactive: 12.9 µM

**Q.** For `COC(=O)/C=C1\C(CO[Si](C)(C)C(C)(C)C)OC(n2cc(C)c(=O)n(C)c2=O)C1O[Si](C)(C)C(C)(C)C` (centres undefined), which GI50 is on record?
**A.** inactive: > 100 µM

**Q.** For `O=C1CSC(c2ccccc2[N+](=O)[O-])N1c1ccc(-c2ccc(-n3c(-c4ccccc4)nc4ccccc4c3=O)cc2)cc1` (centres undefined), which GI50 is on record?
**A.** inactive: > 100 µM

**Q.** `Cc1cc(OCc2nc(N)nc(N)c2-c2ccc(Cl)c(Cl)c2)ccc1[N+](=O)[O-]` was tested. Which GI50 did it give?
**A.** active: 0.425 µM

**Q.** How did the GI50 turn out when `CCCCCCCCC[C@@H]1C[C@H](O)[C@H](Cc2ccccc2)N1C(=O)OC(C)(C)C` was run?
**A.** inactive: 18.1 µM

**Q.** With `O=C(NCCN1CCCCC1)c1ccc(Br)cc1` as the compound, how does the GI50 read?
**A.** inactive: > 100 µM

**Q.** `Nc1ccc(C(=O)NN2C(=O)[C@H](Cl)C2c2ccc(Cl)cc2)cc1` (some centres undefined) was tested. Which GI50 did it give?
**A.** inactive: 2.08 µM

**Q.** How did the GI50 turn out when `Cc1ccc(/N=N/c2cc(=O)[nH]c(=O)[nH]2)cc1C` was run?
**A.** inactive: 17 µM

**Q.** For `C/C(=N/NC(=S)Nc1ccc(Cl)cc1)c1cccc(/C(C)=N\NC(=S)Nc2ccc(Cl)cc2)n1`, which GI50 is on record?
**A.** inactive: 1.36 µM

**Q.** How did the GI50 turn out when `O=C1c2ccccc2C(=O)N1CCCCNOCCCN1C(=O)c2ccccc2C1=O` was run?
**A.** inactive: > 100 µM

**Q.** How did the GI50 turn out when `O=[N+]([O-])C(=C1Nc2ccccc2N1)/C(Cl)=C(/Cl)N1CCOCC1` was run?
**A.** inactive: > 100 µM

**Q.** Which GI50 does the source give for `Cc1ccc(S(=O)(=O)N2CCSCCSCCSCCN(S(=O)(=O)c3ccc(C)cc3)CC2)cc1` here?
**A.** inactive: > 100 µM

**Q.** For `O=C(O)CNn1c(SCC(=O)O)nnc(/C=C/c2c(O)ccc3ccccc23)c1=O`, which GI50 is on record?
**A.** inactive: 24.5 µM

**Q.** How did the GI50 turn out when `CC1=Nc2nc3ccccc3n2C(C)(C)C1` was run?
**A.** inactive: > 100 µM

**Q.** `COc1c2c(nc3ccccc13)-c1cc3c(c(=O)n1C2)COC(=O)C3(O)CC(=O)N1CCOCC1` (centres undefined) was tested. Which GI50 did it give?
**A.** inactive: 19.3 µM

**Q.** How did the GI50 turn out when `CCCCCCOC(=O)/C=C/[C@]1(CO)C/C(=C/CC(C(C)C)C(C)C)C(=O)O1` was run?
**A.** inactive: 11.5 µM

**Q.** Which GI50 does the source give for `S=C(CSc1ccccc1)Nc1cccc2ccccc12` here?
**A.** inactive: > 100 µM

**Q.** How did the GI50 turn out when `c1c[nH]c(CN2CCOCC2)n1` was run?
**A.** inactive: > 100 µM

**Q.** `Brc1ccc2c([C@H]3CN[C@@H](c4c[nH]c5cc(Br)ccc45)CN3)c[nH]c2c1` was tested. Which GI50 did it give?
**A.** inactive: 6.12 µM

**Q.** With `CSC(SC)=C1Sc2cccc(Cl)c2S1` as the compound, how does the GI50 read?
**A.** inactive: > 100 µM

**Q.** Which GI50 does the source give for `O=C(NCCCN(CCCCN(CCCNC(=O)C(F)(F)F)Cc1ccccc1)Cc1ccccc1)C(F)(F)F` here?
**A.** inactive: 14.1 µM

**Q.** With `Cc1cn2c(C)csc2c1P(=O)(OC(C)C)OC(C)C` as the compound, how does the GI50 read?
**A.** inactive: > 100 µM

**Q.** With `OCCN(CCO)CCn1cnc2c(NCc3ccccc3)ncnc21` as the compound, how does the GI50 read?
**A.** inactive: > 100 µM

**Q.** How did the GI50 turn out when `CCc1c(C#N)c(=O)[nH]c(=O)n1CCN1CCN(C(=O)NCCCCCCNC(=O)N2CCN(CCn3c(CC)c(C#N)c(=O)[nH]c3=O)CC2)CC1` was run?
**A.** inactive: > 100 µM

**Q.** Which GI50 does the source give for `O=C(Nc1cccc(C(F)(F)F)c1)c1cc(Br)cc(Br)c1O` [FLUOROSALAN] here?
**A.** inactive: 3.6 µM

**Q.** How did the GI50 turn out when `COc1ccc(/C=C/c2cc(OC)c(OC(C)=O)c(OC)c2)cc1` was run?
**A.** inactive: 36 µM

**Q.** With `CO[P@@]1(=O)O[C@@H](c2ccccc2)[C@H](O)[C@]1(O)c1ccccc1` as the compound, how does the GI50 read?
**A.** inactive: 25.8 µM

**Q.** With `O=C(/C=C1\Nc2ccc([N+](=O)[O-])cc2N\C1=C/C(=O)c1ccc(F)cc1)c1ccc(F)cc1` as the compound, how does the GI50 read?
**A.** inactive: > 100 µM

**Q.** Which GI50 does the source give for `COc1cc(OC)c(NC2=NCCO2)cc1Cl` here?
**A.** inactive: 54.7 µM

**Q.** How did the GI50 turn out when `CCOC(=O)CCCOc1cc(-c2ccccc2F)nc2cc3c(cc12)OCO3` was run?
**A.** inactive: > 100 µM

**Q.** With `O=C(O)CSc1nnc(-c2ccccc2)[nH]1` as the compound, how does the GI50 read?
**A.** inactive: > 100 µM

**Q.** `O=C(N/N=C\c1ccc([N+](=O)[O-])cc1)Nc1cccc2ccccc12` was tested. Which GI50 did it give?
**A.** inactive: 48.2 µM

**Q.** For `C[C@]12CCC3=NCCN3C1=CC[C@@H]1[C@@H]2CC[C@@]2(C)[C@H]1CC[C@]2(C)O`, which GI50 is on record?
**A.** inactive: > 100 µM

**Q.** `CN(C)CCCNC(=O)c1cc(NC(=O)c2cc(NC(=O)CCCn3c4ccccc4c4ccccc43)cn2C)cn1C` was tested. Which GI50 did it give?
**A.** inactive: 8.47 µM
